Data published in PubChem BioAssay AID488969 (Vanderbilt High Throughput Screening Facility, 2010).
Whole data set: some 110,000 compounds, median “z-score” near -0.1, cut for the highest 2% near 2. This is one part of the list. Active and inactive are the calls of the source.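 Rule for the calls: active = z-score in the third read window above 3 or below -3; inactive = the rest.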

target: Metabotropic glutamate receptor 8 (Rattus norvegicus) (UniProt P70579); experiment: rat mGluR8 modulators via GIRK flux, primary screen, cell-based, thallium flux, HTS (AID 488969); conditions: HEK293 rat mGluR8, GIRK (G protein-gated inwardly rectifying potassium channel) thallium flux, FluoZin2; at 10 µM; stronger effect = higher value; submaximal glutamate (EC20) added with thallium
Sequence of UniProt P70579 (P70579 whole entry, looked up): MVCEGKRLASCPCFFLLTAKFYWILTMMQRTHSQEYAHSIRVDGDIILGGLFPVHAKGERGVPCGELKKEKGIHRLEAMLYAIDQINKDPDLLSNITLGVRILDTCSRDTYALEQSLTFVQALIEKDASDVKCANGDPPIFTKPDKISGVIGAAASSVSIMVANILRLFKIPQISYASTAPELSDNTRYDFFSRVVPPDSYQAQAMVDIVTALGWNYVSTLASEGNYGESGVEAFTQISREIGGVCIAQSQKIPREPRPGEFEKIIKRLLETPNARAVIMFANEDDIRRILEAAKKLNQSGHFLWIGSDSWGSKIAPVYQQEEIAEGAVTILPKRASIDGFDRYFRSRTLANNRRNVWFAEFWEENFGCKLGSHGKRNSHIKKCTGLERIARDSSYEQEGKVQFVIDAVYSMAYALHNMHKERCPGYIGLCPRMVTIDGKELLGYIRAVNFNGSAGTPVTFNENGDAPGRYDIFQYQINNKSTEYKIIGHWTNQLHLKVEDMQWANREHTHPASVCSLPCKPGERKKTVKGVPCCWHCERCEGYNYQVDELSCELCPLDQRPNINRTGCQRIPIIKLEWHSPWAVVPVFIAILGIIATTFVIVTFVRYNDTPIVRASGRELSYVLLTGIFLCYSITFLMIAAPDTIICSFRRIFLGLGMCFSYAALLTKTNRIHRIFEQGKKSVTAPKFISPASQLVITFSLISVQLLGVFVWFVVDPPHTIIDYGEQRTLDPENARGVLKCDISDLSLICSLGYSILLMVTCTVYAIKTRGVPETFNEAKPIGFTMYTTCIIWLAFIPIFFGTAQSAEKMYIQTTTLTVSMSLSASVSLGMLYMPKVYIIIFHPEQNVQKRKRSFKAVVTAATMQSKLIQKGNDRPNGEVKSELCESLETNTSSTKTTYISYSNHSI

| SMILES | z-score |
| --- | --- |
| CCOc1ccc(NC(=O)CSc2nnc(C(C)C)n2CC)cc1 | 0.698 |
| CCCCOC(=O)CSC1=C(C#N)C(c2ccccc2OCC)C(C#N)C(=O)N1 (configuration not stated) | -1.97 |
| COc1cc(C(=O)OCC(=O)Nc2c(F)c(F)c(F)c(F)c2F)cc(OC)c1OC | 0.0147 |
| CCOC(=O)C(C)N1N=C(/C=C/c2ccc(OC)cc2)CCC1=O (configuration not stated) | 0.00131 |
| Cc1ccc(-c2nnc(SCC(=O)Nc3nccs3)n2N)cc1 | -0.189 |
| O=C(c1ccccc1F)N1CCN(Cc2cccc(Cl)c2)CC1 | -0.421 |
| C/C(=N\NC(=S)NC1CCCCC1)c1cccc(Br)c1 | -0.438 |
| CCOc1ccc(-n2c(Cc3cc(=O)[nH]c(=O)[nH]3)nnc2SC(C)C(=O)OC)cc1 (configuration not stated) | active: 12.7 |
| COC(=O)c1cc2c(ccn2-c2ccc(F)cc2)n1C(C)C | 0.713 |
| CC(=O)c1cccc(-n2nnnc2SCC(=O)N2CCCC2)c1 | -0.00861 |
| CCOc1ccc(OCC)c(NC(=O)CN(C)S(=O)(=O)c2cccc3nsnc23)c1 | -1.39 |
| COc1ccc2ccccc2c1/C=N/O | -0.86 |
| COc1cc(NC(=O)CC2NCCNC2=O)cc(OC)c1 (configuration not stated) | 0.425 |
| NC(=O)c1c(NC(=O)C2CCCO2)sc2c1CCCCC2 (configuration not stated) | 0.0471 |
| Cc1cc(C)cc(N(CC(=O)O)S(=O)(=O)c2c(C)noc2C)c1 | -0.132 |
| COc1ccc(OC)c(NC(=O)c2cccnc2Sc2cc(C)ccc2C)c1 | 0.576 |
| CCc1nnc(NC(=O)C2Cc3ccccc3C(=O)O2)s1 (configuration not stated) | -0.848 |
| CCOC(=O)Nc1ccc2c(c1)N(C(=O)CCN1CCN(CCO)CC1)c1ccccc1S2 | -0.337 |
| CCOc1ccccc1NS(=O)(=O)c1c(C)noc1C | -0.129 |
| COc1cc(C2C=C(C34CC5CC(CC(C5)C3)C4)NC(=S)N2)cc(OC)c1OC (configuration not stated) | -0.00499 |
| Cc1cc(C(=O)OCC(=O)Nc2sc3c(c2C#N)CCC(C)C3)c2ccccc2n1 (configuration not stated) | -0.0713 |
| C=C(C)Cn1c(N2CCC(Cc3ccccc3)CC2)nc2c1c(=O)[nH]c(=O)n2C | 1.68 |
| CCOC(=O)c1cccc(NC(=O)CCc2nc(-c3ccccc3F)no2)c1 | -0.724 |

| SMILES | z-score |
| --- | --- |
| Cc1ccccc1C(=O)N/N=C/c1ccccn1 | -0.12 |
| COCCN1Cc2cccc(C(=O)Nc3ccc4c(c3)OCCO4)c2C1=O | -0.553 |
| Cc1cccc(N/C(N)=N/c2nc3c(c(=O)[nH]2)CCCC3)c1 | -0.177 |
| CN(C)S(=O)(=O)c1ccc(NS(=O)(=O)/C=C/c2ccccc2)cc1 | -0.581 |
| Cc1ccc(C)c(NC(=S)NNC(=O)c2csc(C)c2C)c1 | 2.09 |
| O=C1CCCN1c1ccc(S(=O)(=O)Oc2cccc(Cl)c2)cc1[N+](=O)[O-] | -0.169 |
| Cc1ccccc1S(=O)(=O)Cc1ccc(C(=O)NCc2cccnc2)o1 | 0.132 |
| NS(=O)(=O)c1ccc(CCNCc2cc(Br)ccc2OCc2ccccc2)cc1 | -0.122 |
| O=C(Nn1cnc2ccccc2c1=O)C1CCCCC1 | -0.112 |
| Cc1cccc(C)c1OC1(c2ccccc2)OC(=O)c2ccccc21 (configuration not stated) | -0.253 |
| COC(=O)c1c(C)[nH]c(C)c1-c1ccc(C)cc1 | -1.13 |
| COc1cccc(/C=N/n2c(SC)nnc2-c2ccccc2)c1O | -0.751 |
| Cc1cccc(-c2nnc(SCC(=O)Nc3nc4c(s3)CCCC4)n2C)c1 | -1.4 |
| CCCOC(=O)c1ccc(Oc2c(-c3ccc(OCC)cc3O)n[nH]c2C)cc1 | -1.19 |
| Cc1cccc(OCc2nnc(SCC(=O)N3CCc4ccccc43)n2C)c1 | 2.88 |
| Cc1ccc(/C=C/C(=O)c2c(C)cc(C)[nH]c2=O)cc1 | -0.116 |
| COCCn1c(SCC(=O)Nc2ncc(Cl)c(C)c2Cl)nc2ccccc21 | -0.494 |
| CCCCN(c1ccccc1)c1ncnc(N)c1[N+](=O)[O-] | -0.0801 |
| Cc1ccc(-n2nnnc2SCC(=O)Nc2cccc(NC(=O)c3ccco3)c2)cc1C | 1.39 |
| CN1C(=O)c2ccccc2N(C)C1c1cccs1 (configuration not stated) | -1.51 |
| CC1=NNC(=O)C(CC(=O)Nc2ccc(Cl)c(Cl)c2)C1 (configuration not stated) | 0.199 |
| Cc1ccc(/C=C/C(=O)OC(C)C(=O)Nc2ncc(Cl)cc2Cl)o1 (configuration not stated) | -0.163 |
| CC(C)Oc1ccc(C(=O)NCc2cccnc2)cc1 | 0.59 |

| SMILES | z-score |
| --- | --- |
| CCOC(=O)C1C(=O)NC(N2CCc3ccccc32)=NC1c1ccccc1 (configuration not stated) | 0.134 |
| O=C(Nc1ccccc1F)C(=Cc1sc(N2CCOCC2)nc1-c1ccccc1)C(=O)Nc1ccccc1F | -0.297 |
| CN(CCO)C1=CC(=O)CC(C)(C)C1 | -0.41 |
| Cc1ccccc1C(=O)NC1CCS(=O)(=O)C1 (configuration not stated) | 0.0176 |
| O=C(c1cccc(S(=O)(=O)NCc2ccccc2)c1)N1CCN(Cc2ccccc2)CC1 | -0.219 |
| CC(Sc1nc2ccccc2s1)C(=O)NCc1ccc2c(c1)OCO2 (configuration not stated) | -0.205 |
| Nc1[nH]n2c(=O)c3c(nc2c1N=Nc1ccc(Cl)cc1)CCCC3 | -1.09 |
| CCOC(=O)CN1Cc2cccc(C(=O)O)c2C1=O | -0.00379 |
| Cc1ccc2c(c1)C1CN(C)CCC1N2C(=O)c1ccccc1NS(=O)(=O)c1cccc(C(F)(F)F)c1 (configuration not stated) | -0.21 |
| CCCCSc1n[nH]c(N)n1 | -0.247 |
| Cc1cc(C(N)=O)c2cc(Br)ccc2n1 | -0.184 |
| CCCCc1nnc(NC(=O)CC(=O)Nc2ccccc2C(=O)O)s1 | -0.431 |
| COC(=O)c1ccc(OC)c(CSc2nnc(COc3ccc(Cl)cc3)o2)c1 | 0.11 |
| CCCCN(CC)C(=O)Cn1c(=O)sc2ccccc21 | -0.255 |
| C[C@H](NC(=O)Nc1ccccc1F)C(=O)O | -0.255 |
| COc1ccccc1NC(=O)CCSCCC(=O)Nc1ccccc1OC | -0.305 |
| CCCCC(=O)OCC(=O)c1ccc(OCC)cc1 | 0.0645 |
| N/C(=N\OC(=O)COc1ccc(Br)cc1)c1ccncc1 | -0.48 |
| O=C(NC1CCCCC1)C(c1ccc2ncccc2c1)N(Cc1ccc(F)cc1)C(=O)c1ccc2c(c1)OCCO2 (configuration not stated) | -0.344 |
| Cc1ccc(O)c(NC(=S)NC(=O)CC(C)C)c1 | -0.0996 |
| c1ccc2cc(-c3cc4ccccn4c3)ccc2c1 | -0.248 |
| O=C(NCCCN1CCOCC1)c1cc(-c2ccc(Br)cc2)on1 | -0.302 |
| CC1(C)CC(=O)C(C=NCC2CCNCC2)=C(O)C1 | 0.384 |

| SMILES | z-score |
| --- | --- |
| CCSc1nc2sc3c(c2c(=O)[nH]1)CC(C)(CC)OC3 (configuration not stated) | -0.488 |
| COc1c(F)c(F)c(C(=O)Nc2ccccc2N2CCN(C(=O)C(C)C)CC2)c(F)c1F | -0.545 |
| N#CCCn1cc(C(CC(=O)c2ccccc2)C(=O)O)c2ccccc21 (configuration not stated) | -0.0596 |
| Cn1c(CNC(=O)c2ccc(Cl)c(Cl)c2)nnc1SCC(=O)Nc1sc2c(c1C#N)CCCC2 | -0.526 |
| CC(C)CCn1c(Oc2ccc(Cl)cc2)nc2c1c(=O)n(C)c(=O)n2C | -0.037 |
| CCOc1ccc(-n2c(C)cc(C(=O)NS(=O)(=O)c3ccc(C)cc3)c2C)cc1 | 0.138 |
| CCN(CC)C(=S)Nc1ccc(Cl)c(Cl)c1 | 0.00748 |
| Cc1ccc2c(n1)sc1c(-c3ccccc3)c(C#N)c(N)nc12 | 0.104 |
| Cc1cccc2nc(=S)n(C(=O)c3ccco3)n12 | 0.787 |
| Cc1cc(NC(=O)CSc2nc3c(c(=O)n2-c2ccc(Br)cc2)SCC3)no1 | -0.498 |
| Cc1ccc(-n2[nH]c(C)c(C=Nc3cc(C)ccn3)c2=O)cc1 | active: 10.6 |
| CC[n+]1c(/C=C2\C=C(C)CC(C)C2)sc2ccccc21 (configuration not stated) | -0.105 |
| Cc1cc(NC(=O)CSc2nc3cc(Cl)ccc3s2)no1 | -0.376 |
| O=C(CN(C(=O)CCC(=O)Nc1nccs1)c1ccccc1F)NCC1CCCO1 (configuration not stated) | 0.359 |
| CC(C)(C)c1ccc(C(=O)NNC(=O)c2cccc(Br)c2)cc1 | -0.236 |
| COc1ccc(OC)c(-n2c(O)cnc2Nc2nc(C)cc(C)n2)c1 | 1.34 |
| COc1ccc(C(=O)Nc2nc(C)c(C(=O)N(C)C)s2)cc1OC | 0.0903 |
| CCOC(=O)N1CCN(C(=O)CN(c2ccc(C)cc2)S(=O)(=O)c2c(C)noc2C)CC1 | -0.441 |
| O=C(N1CCOCC1)N1c2ccccc2CC(N2CCOCC2)c2ccccc21 (configuration not stated) | 0.529 |
| COC(=O)c1ccc(Cl)c(NC(=O)CN(c2ccc(OC)c(OC)c2)S(C)(=O)=O)c1 | 2.1 |
| Cc1ccc(C23CC4CC(CC(NC(=O)NCCN(C)C)(C4)C2)C3)cc1 | 0.295 |
| CCOc1ccccc1CNn1nnnc1N | 0.138 |
| O=C(CSc1nc2ccc(Cl)cc2[nH]1)NCCc1ccccc1 | -0.304 |

| SMILES | z-score |
| --- | --- |
| Cc1cc(NCCN(C)C)n2nc(-c3cccs3)cc2n1 | 0.328 |
| O=S(=O)(c1ccccc1)c1nc(-c2ccco2)oc1NCCCn1ccnc1 | -0.0983 |
| COCCCN1C(=O)c2ccc(C(=O)O)cc2C1=O | 0.55 |
| CC(=O)NCc1ccc(S(=O)(=O)N/N=C/c2ccc(N(C)C)cc2)cc1 | -0.222 |
| COc1ccc(C(=O)Cc2ccc(F)cc2)c(OC)c1 | -0.203 |
| CCOC(=O)c1cc2sccc2n1CC(=O)Nc1ccc2c(c1)OCCO2 | 0.34 |
| Oc1ccccc1-c1cc(C(F)(F)C(F)F)[nH]n1 | -1.21 |
| CCN(CC)C(=O)C(C)N(C#N)c1nc(SC)nc(N(C)C)n1 (configuration not stated) | -0.129 |
| Cc1ccc(Nc2nc(CSc3nnc(-c4cccnc4)n3-c3ccccc3F)cs2)cc1 | -0.75 |
| COc1cc(OC)c(/C=N/NC(N)=S)cc1Br | -0.0375 |
| CCOP(=O)(OCC)c1nc(-c2cccc3ccccc23)oc1NCCc1ccc(OC)cc1 | -0.306 |
| COc1cccc(NC(=O)C(NC2CCCC2)c2ccccc2)c1 (configuration not stated) | -1.01 |
| CCC(=O)Nc1cccc(NC(=O)c2cc3ccccc3o2)c1 | -0.237 |
| COc1cc(OC)c(S(=O)(=O)Nc2ccc(C)cn2)cc1NC(C)=O | -0.108 |
| CC1CCN(S(=O)(=O)c2ccc(N/N=C(/C#N)C(N)=O)cc2)CC1 | -0.0448 |
| COC(=O)C1=C(C(=O)c2ccccc2)C(c2ccc(O)c(OC)c2)n2nnnc2N1 (configuration not stated) | 0.106 |
| O=C(NCCC1=CCCCC1)NC12CC3CC(CC(C3)C1)C2 | 0.498 |
| CCOc1ccc(N2CC(=O)N(c3ccc(OCC)cc3)CC2=O)cc1 | -0.298 |
| O=C(O)c1ccc(CNCc2ccc(Cl)cc2)cc1 | 1.77 |
| N#Cc1nc(-c2ccco2)oc1NCCc1ccccc1 | -1.03 |
